The text below walks through data of the supplement of paper PMC11880418.

Structures can show the parent of a compound that is named as a salt. Some of the results follow. The data scatter; read single values as rough.

Common to all, as to experiment: ALDHbr (CSC) cell proportion score relative to DMSO vehicle (ratio to DMSO); breast (SUM159) / gastric (MKN45) / pancreatic (PANC1) / colon cancer lines; ALDHbr cells have high ALDH activity and are rich in cancer stem cells (CSC); higher = more CSC (ALDHbr) cells remaining
Common to all, as to conditions: 10 µM; 72 h

For assay [1], the system named is MKN45.
The test system of assay [2] is PANC1.
Assay [3] concerns SUM159.
In assay [4] the test system is T84.
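Further: High-content imaging of ALDEFLUOR-stained cells with Hoechst-labelled nuclei in 384-well plates, triplicate wells, scored as Z-score against 0.1% DMSO vehicle, negative meaning fewer ALDHbr cells.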

In the case of `CN(C)CCOC(c1ccccc1)c1ccccc1.Cn1c(=O)c2[nH]c(Cl)nc2n(C)c1=O` [Dimenhydrinate], the ALDHbr stood at 1.07 in assay [1], 0.806 in assay [2], 1.03 in assay [3] and 1.04 in assay [4].
For the compound `Cc1onc(-c2c(F)cccc2Cl)c1C(=O)N[C@@H]1C(=O)N2[C@@H]1SC(C)(C)[C@@H]2C(=O)O` [Flucloxacillin sodium], the ALDHbr in assay [1] is 1.33; in assay [2], 1.11; in assay [3], 0.821; in assay [4], 0.964.
The corresponding values for `CC(C)(C)NC[C@H](O)COc1ccccc1C1CCCC1` [Penbutolol sulfate] are 0.931, 1.11, 1.16 and 0.757.
On the same counts, the results for `CNCC(O)c1ccc(OC(=O)C(C)(C)C)c(OC(=O)C(C)(C)C)c1` (centres undefined) [Dipivefrin hydrochloride] are 1.07, 0.792, 2.28 and 1.04.
In the case of `CCOc1ccc(Cc2nccc3cc(OCC)c(OCC)cc23)cc1OCC` [Ethaverine hydrochloride], the ALDHbr is 1.33 in assay [1], 1.07 in assay [2], 1.53 in assay [3] and 0.739 in assay [4].
The corresponding values for `CC1=C(/C=C/C(C)=C/C=C/C(C)=C\C(=O)O)C(C)(C)CCC1` [Isotretinoin] are 0.925, 1.78, 0.0517 and 0.729.
On the same counts, the results for `CC1(C)O[C@@H]2C[C@H]3[C@@H]4CCC5=CC(=O)CC[C@]5(C)[C@@]4(F)[C@@H](O)C[C@]3(C)[C@]2(C(=O)CCl)O1` [Halcinonide] are 0.8, 0.541, 1.35 and 0.955.
Consider `CN(C/C=C/c1ccccc1)Cc1cccc2ccccc12` [Naftifine hydrochloride], for which the ALDHbr in assay [1] turned out to be 0.951; in assay [2], 0.953; in assay [3], 0.986; in assay [4], 0.834.
The corresponding values for `CCCCc1oc2ccccc2c1C(=O)c1cc(I)c(OCCN(CC)CC)c(I)c1` [Amiodarone hydrochloride] are 0.359, 1.25, 0.38 and 0.198.
As to `CN(C)[C@@H]1C(=O)C(C(N)=O)=C(O)[C@@]2(O)C(=O)C3=C(O)c4c(O)ccc(Cl)c4[C@@H](O)[C@H]3C[C@@H]12` [Demeclocycline hydrochloride], the ALDHbr in assay [1] was determined as 0.929; in assay [2] it was 0.49; in assay [3] it was 0.766; in assay [4], 0.905.
The corresponding values for `CC(=O)OCC(=O)[C@@]12OC(C)(C)O[C@@H]1C[C@H]1[C@@H]3C[C@H](F)C4=CC(=O)C=C[C@]4(C)[C@@]3(F)[C@@H](O)C[C@@]12C` [Fluocinonide] are 0.943, 0.686, 1.32 and 0.922.
The corresponding values for `CC1(C)O[C@@H]2C[C@H]3[C@@H]4C[C@H](F)C5=CC(=O)C=C[C@]5(C)[C@H]4[C@@H](O)C[C@]3(C)[C@]2(C(=O)CO)O1` [Flunisolide] are 0.852, 0.698, 1.39 and 0.935.
Regarding `Cc1ncc(CO)c(CO)c1O` [Pyridoxine hydrochloride], the ALDHbr in assay [1] worked out at 1.04; in assay [2], 0.958; in assay [3], 0.808; in assay [4] it was 0.98.
As for `CCCC(C(=O)OCCN(CC)CC)(c1ccccc1)c1ccccc1` [Proadifen hydrochloride], the ALDHbr in assay [1] is 0.781; in assay [2] it was 0.9; in assay [3], 0.711; in assay [4] it was 0.854.
For `O=C(O)c1cccnc1Nc1cccc(C(F)(F)F)c1` [Niflumic acid], the ALDHbr in assay [1] was 1; in assay [2], 0.848; in assay [3], 0.78; in assay [4], 0.895.
In the case of `CCN(CC)Cc1cc(Nc2ccnc3cc(Cl)ccc23)ccc1O` [Amodiaquin dihydrochloride dihydrate], the ALDHbr in assay [1] stood at 1.42; in assay [2], 1.03; in assay [3], 0.585; in assay [4], 0.933.
